Data taken from the supplement of paper PMC8728848.
The other results are listed elsewhere or left out.

What was measured:
Assay in all cases: glycan array binding signal (z-score within array); higher = stronger binding
Conditions in all cases: glycan notation: IUPAC condensed, linker removed
[1] = target: Gal6S(b1-4)Glc
Procedure, shortened: (§1)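 Negative Z-scores can be read as non-binding. The Z-score is calculated within each array and then averaged across arrays of one protein sequence at different concentrations or buffers and across linkers. Arrays, 3228 in all, were curated from the Consortium for Functional Glycomics database and kept only where the protein sequence was available.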

[2] = target: Gal6S(b1-4)Glc6S
Procedure, shortened: as §1

[3] = target: Gal6S(b1-4)GlcNAc
Procedure, shortened: as §1

[4] = target: Gal6S(b1-4)GlcNAc6S
Procedure, shortened: as §1

[5] = target: GalNAc(a1-3)Gal
Procedure, shortened: as §1

[6] = target: GalNAc(a1-3)GalNAc
Procedure, shortened: as §1

[7] = target: GalNAc(a1-3)GalNAc(b1-3)Gal(a1-4)Gal(b1-4)Glc
Procedure, shortened: as §1

[8] = target: GalNAc(a1-3)GalNAc(b1-3)Gal(a1-4)Gal(b1-4)GlcNAc
Procedure, shortened: as §1

[9] = target: GalNAc(b1-3)Gal
Procedure, shortened: as §1

[10] = target: GalNAc(b1-3)Gal(a1-4)Gal(b1-4)GlcNAc
Procedure, shortened: as §1

[11] = target: GalNAc(b1-3)Gal(a1-4)Gal(b1-4)GlcNAc(b1-3)Gal(b1-4)Glc
Procedure, shortened: as §1

[12] = target: GalNAc(b1-3)Gal(a1-6)Gal(b1-4)Glc
Procedure, shortened: as §1

[13] = target: GalNAc(b1-3)GalNAc
Procedure, shortened: as §1

[14] = target: GalNAc(b1-3)GlcNAc
Procedure, shortened: as §1

[15] = target: GalNAc(b1-4)Gal(b1-4)Glc
Procedure, shortened: as §1

[16] = target: GalNAc(b1-4)GlcNAc
Procedure, shortened: as §1

[17] = target: GalNAc(b1-4)GlcNAc(b1-2)Man
Procedure, shortened: as §1

[18] = target: GalNAc(b1-4)GlcNAc(b1-2)Man(a1-3)[GalNAc(b1-4)GlcNAc(b1-2)Man(a1-6)]Man(b1-4)GlcNAc(b1-4)GlcNAc
Procedure, shortened: as §1

[19] = target: GalNAc(b1-4)GlcNAc(b1-3)GalNAc(b1-4)GlcNAc
Procedure, shortened: as §1

[20] = target: GalNAc(b1-4)GlcNAc6S
Procedure, shortened: as §1

[21] = target: GalNAc(b1-6)GalNAc
Procedure, shortened: as §1

[22] = target: GalNAc3S(b1-4)GlcNAc
Procedure, shortened: as §1

[23] = target: GalNAc3S(b1-4)GlcNAc3S
Procedure, shortened: as §1

[24] = target: GalNAc3S(b1-4)[Fuc(a1-3)]GlcNAc
Procedure, shortened: as §1

[25] = target: GalNAc4S6S(b1-4)GlcNAc
Procedure, shortened: as §1

[26] = target: GalNAc6S(b1-4)GlcNAc
Procedure, shortened: as §1

[27] = target: Glc(a1-4)Glc
Procedure, shortened: as §1

[28] = target: Glc(a1-4)Glc(a1-4)Glc(a1-4)Glc
Procedure, shortened: as §1

[29] = target: Glc(a1-6)Glc(a1-6)Glc
Procedure, shortened: as §1

[30] = target: Glc(a1-6)Glc(a1-6)Glc(a1-6)Glc
Procedure, shortened: as §1

[31] = target: Glc(b1-4)Glc
Procedure, shortened: as §1

[32] = target: Glc(b1-6)Glc
Procedure, shortened: as §1

[33] = target: GlcA(b1-3)Gal
Procedure, shortened: as §1

[34] = target: GlcA(b1-3)GlcNAc
Procedure, shortened: as §1

[35] = target: GlcA(b1-6)Gal
Procedure, shortened: as §1

[36] = target: GlcA3S(b1-3)Gal(b1-4)GlcNAc(b1-2)Man
Procedure, shortened: as §1

[37] = target: GlcA3S(b1-3)Gal(b1-4)GlcNAc(b1-3)Gal(b1-4)Glc
Procedure, shortened: as §1

[38] = target: GlcNAc(a1-3)Gal(b1-4)GlcNAc
Procedure, shortened: as §1

[39] = target: GlcNAc(a1-4)Gal(b1-3)GlcNAc
Procedure, shortened: as §1

[40] = target: GlcNAc(a1-4)Gal(b1-4)GalNAc
Procedure, shortened: as §1

[41] = target: GlcNAc(a1-4)Gal(b1-4)GlcNAc
Procedure, shortened: as §1

[42] = target: GlcNAc(a1-4)Gal(b1-4)GlcNAc(b1-3)Gal(b1-4)Glc
Procedure, shortened: as §1

[43] = target: GlcNAc(a1-4)Gal(b1-4)GlcNAc(b1-3)Gal(b1-4)GlcNAc
Procedure, shortened: as §1

[44] = target: GlcNAc(a1-4)Gal(b1-4)GlcNAc(b1-3)Gal(b1-4)GlcNAc(b1-3)Gal(b1-4)GlcNAc
Procedure, shortened: as §1

[45] = target: GlcNAc(a1-4)Gal(b1-4)GlcNAc(b1-3)Gal(b1-4)[Fuc(a1-3)]GlcNAc(b1-3)Gal(b1-4)[Fuc(a1-3)]GlcNAc
Procedure, shortened: as §1

B1: HA-11100 (Pseudomonas aeruginosa), Q02G51_PSEAB (protein)
chain: QFNPNEIKISQQGKTTLIDQSTQRAIINWKGFDVSADEAVRFNQPGVTSSTLNRVTAGQESVIAGRISAPGQVIIYNSNGVVFSGSAKVDVGSLITTTANISDEHFRQGKLIFDQPGNPDARIVNDGSISVAEKGLAAFVAPSVANNGVINARLGTVAMAAGNAATIDLYG
[1]
  glycan array binding signal (z-score): 0.008
[2]
  glycan array binding signal (z-score): 0.251
[3]
  glycan array binding signal (z-score): 1.21
[4]
  glycan array binding signal (z-score): -0.33
[5]
  glycan array binding signal (z-score): 1.36
[6]
  glycan array binding signal (z-score): -0.148
[7]
  glycan array binding signal (z-score): -0.122
[8]
  glycan array binding signal (z-score): -0.331
[9]
  glycan array binding signal (z-score): -0.347
[10]
  glycan array binding signal (z-score): -0.117
[11]
  glycan array binding signal (z-score): -0.438
[12]
  glycan array binding signal (z-score): -0.243
[13]
  glycan array binding signal (z-score): -0.223
[14]
  glycan array binding signal (z-score): -0.598
[15]
  glycan array binding signal (z-score): -0.269
[16]
  glycan array binding signal (z-score): -0.341
[17]
  glycan array binding signal (z-score): -0.012
[18]
  glycan array binding signal (z-score): 1.11
[19]
  glycan array binding signal (z-score): 0.008
[20]
  glycan array binding signal (z-score): -0.328
[21]
  glycan array binding signal (z-score): -0.453
[22]
  glycan array binding signal (z-score): -0.302
[23]
  glycan array binding signal (z-score): -0.227
[24]
  glycan array binding signal (z-score): -0.289
[25]
  glycan array binding signal (z-score): -0.38
[26]
  glycan array binding signal (z-score): -0.236
[27]
  glycan array binding signal (z-score): -0.295
[28]
  glycan array binding signal (z-score): -0.123
[29]
  glycan array binding signal (z-score): -0.36
[30]
  glycan array binding signal (z-score): -0.282
[31]
  glycan array binding signal (z-score): -0.166
[32]
  glycan array binding signal (z-score): 0.199
[33]
  glycan array binding signal (z-score): -0.243
[34]
  glycan array binding signal (z-score): -0.046
[35]
  glycan array binding signal (z-score): -0.399
[36]
  glycan array binding signal (z-score): -0.243
[37]
  glycan array binding signal (z-score): -0.525
[38]
  glycan array binding signal (z-score): -0.571
[39]
  glycan array binding signal (z-score): -0.269
[40]
  glycan array binding signal (z-score): -0.191
[41]
  glycan array binding signal (z-score): -0.04
[42]
  glycan array binding signal (z-score): -0.442
[43]
  glycan array binding signal (z-score): -0.145
[44]
  glycan array binding signal (z-score): -0.121
[45]
  glycan array binding signal (z-score): 0.246
